Consider 33 sequences from article PMC4081100.

What all share (test): universal protein binding microarray (PBM)
Common to all, as to settings: transcription factors of Arabidopsis thaliana; high values mean tight binding; most listed sequences are background and not binding sites; double strand, one strand shown

Assay [1] addresses T1, GST-ANAC019 NAC domain (UniProt Q9C932).
T1 sequence: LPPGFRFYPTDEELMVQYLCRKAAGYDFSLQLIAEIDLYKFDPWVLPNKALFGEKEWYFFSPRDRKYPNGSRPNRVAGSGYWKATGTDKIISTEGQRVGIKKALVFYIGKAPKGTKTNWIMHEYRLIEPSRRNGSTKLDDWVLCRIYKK

The target of assay [2] is T2, GST-ATAF1 NAC domain (UniProt Q39013).
T2 sequence: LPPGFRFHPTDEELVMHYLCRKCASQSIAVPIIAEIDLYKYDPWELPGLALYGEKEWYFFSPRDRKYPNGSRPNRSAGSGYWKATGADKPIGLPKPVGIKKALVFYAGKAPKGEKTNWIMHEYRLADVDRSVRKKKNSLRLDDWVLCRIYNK

Assay [3] has as its target T3, GST-NAP(1-166) (UniProt O49255).
T3 sequence: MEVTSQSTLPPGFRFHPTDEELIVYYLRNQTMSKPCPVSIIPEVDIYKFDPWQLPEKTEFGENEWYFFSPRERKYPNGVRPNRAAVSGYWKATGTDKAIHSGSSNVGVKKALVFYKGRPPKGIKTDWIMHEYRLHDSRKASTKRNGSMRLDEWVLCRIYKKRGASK

Assay [4] concerns the target T4, GST-NTL8 NAC domain (UniProt Q9XIN7).
T4 sequence: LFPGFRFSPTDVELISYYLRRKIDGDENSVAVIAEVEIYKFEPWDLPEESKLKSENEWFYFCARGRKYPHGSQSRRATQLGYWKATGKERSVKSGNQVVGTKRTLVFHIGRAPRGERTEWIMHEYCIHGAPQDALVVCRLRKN

Assay [5] addresses T5, GST-VOZ2 (Arabidopsis thaliana) (UniProt Q9SLB9).
T5 sequence: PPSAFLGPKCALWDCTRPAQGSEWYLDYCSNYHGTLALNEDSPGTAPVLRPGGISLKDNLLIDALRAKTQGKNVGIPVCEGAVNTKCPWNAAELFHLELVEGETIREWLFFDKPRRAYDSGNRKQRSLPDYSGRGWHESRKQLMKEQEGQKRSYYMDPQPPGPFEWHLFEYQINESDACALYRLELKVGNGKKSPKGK

The target of assay [6] is GST-WRKY1(266-371) (UniProt Q9SI37).
For assay [7], the target named is T6, GST-ANAC092(1-176) (UniProt Q9FKA0).
T6 sequence: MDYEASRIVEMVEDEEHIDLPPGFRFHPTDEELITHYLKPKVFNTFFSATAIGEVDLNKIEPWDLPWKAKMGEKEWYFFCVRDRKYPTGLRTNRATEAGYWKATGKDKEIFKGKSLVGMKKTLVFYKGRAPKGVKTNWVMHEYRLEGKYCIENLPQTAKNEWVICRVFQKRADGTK

Assay [8] deals with GST-NTL6(1-168) (UniProt Q9SCK6).
The target of assay [9] is T7, GST-ANAC055(1-171) (UniProt Q9LDY8).
T7 sequence: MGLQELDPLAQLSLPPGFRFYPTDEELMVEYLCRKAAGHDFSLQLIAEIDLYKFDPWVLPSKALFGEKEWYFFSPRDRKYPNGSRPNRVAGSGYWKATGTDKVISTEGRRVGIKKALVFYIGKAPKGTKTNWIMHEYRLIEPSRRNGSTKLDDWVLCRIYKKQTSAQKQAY

Assay [10] has as its target T8, GST-ANAC092(1-285) full length (UniProt Q9FKA0).
T8 sequence: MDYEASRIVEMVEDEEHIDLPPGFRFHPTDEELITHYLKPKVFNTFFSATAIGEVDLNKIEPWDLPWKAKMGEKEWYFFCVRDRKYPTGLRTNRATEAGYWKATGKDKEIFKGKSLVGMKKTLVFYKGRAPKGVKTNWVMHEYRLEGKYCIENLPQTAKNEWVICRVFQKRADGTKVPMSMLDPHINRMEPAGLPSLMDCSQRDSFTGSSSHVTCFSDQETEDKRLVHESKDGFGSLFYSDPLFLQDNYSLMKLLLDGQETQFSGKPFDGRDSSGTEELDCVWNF

Assay [11] has as its target T9, GST-NST2(1-184) (UniProt Q9M274).
T9 sequence: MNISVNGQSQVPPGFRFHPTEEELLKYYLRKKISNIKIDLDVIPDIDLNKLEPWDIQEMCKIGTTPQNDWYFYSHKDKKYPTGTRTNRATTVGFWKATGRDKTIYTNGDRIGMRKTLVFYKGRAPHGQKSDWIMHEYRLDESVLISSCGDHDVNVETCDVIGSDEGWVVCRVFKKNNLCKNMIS

The entries are a selection whose mix differs from that of the whole data set. For some assays here: At the low end of the ranking, values are background and their order means little. The list shows a part of the results. For some assays here: The source does not settle which construct or isoform was used.

As for TACGCTAA, the binding signal in [1] was 0.0422 E-score; in assay [2], 0.19 E-score; in assay [3], 0.0453 E-score; in assay [4], -0.0759 E-score; in [5] it was 0.24 E-score; in assay [6] it was -0.0535 E-score.

On to GTAAGTCA, for which the binding signal is 0.109 E-score in [7]; 0.283 E-score in [8]; 0.134 E-score in assay [1]; 0.228 E-score in assay [9]; 0.238 E-score in [2]; -0.0311 E-score in assay [4]. In addition, in assay [5], the binding signal worked out at 0.125 E-score.

Turning to CACGAAAG, the binding signal in assay [7] was determined as 0.407 E-score; in assay [8], 0.109 E-score; in assay [1], 0.25 E-score; in [10] it was 0.411 E-score; in [4], 0.121 E-score; in assay [5], 0.037 E-score.

CTACGTTA: the binding signal in [3] is 0.135 E-score; in assay [4], -0.052 E-score; in assay [5], 0.0548 E-score.

As to ACGTAACC, the binding signal in assay [11] was 0.338 E-score; in [4], 0.328 E-score; in assay [5] it was -0.0476 E-score; in assay [6], -0.0534 E-score.

As for CTTTCTTC, the binding signal in assay [1] was -0.0287 E-score; in [9] it was -0.0203 E-score; in assay [4], 0.41 E-score; in assay [5] it was -0.15 E-score.

For TCACGTCA, the binding signal was -0.07 E-score in assay [8]; 0.354 E-score in [9]; 0.188 E-score in assay [11]; -0.0823 E-score in [4]; 0.0745 E-score in assay [5].

For TACGTCAA, the binding signal in [8] was -0.0544 E-score; in assay [1], 0.216 E-score; in assay [3], 0.241 E-score; in assay [4], -0.135 E-score; in assay [5] it was 0.0791 E-score.

As to CTTGCGTA, the binding signal in assay [8] was found to be 0.0265 E-score; in [1] it was 0.382 E-score; in assay [11] it was 0.332 E-score; in assay [5], 0.0472 E-score.

As for CTACGTCA, the binding signal in assay [8] is -0.0406 E-score; in [1] it was 0.133 E-score; in assay [9], 0.129 E-score; in assay [3] it was 0.148 E-score; in assay [4] it was -0.238 E-score; in assay [5] it was -0.0839 E-score.

Regarding ACGCAACC, the binding signal is 0.483 E-score in assay [7]; 0.0242 E-score in [8]; 0.478 E-score in assay [3]; 0.146 E-score in assay [4]; 0.353 E-score in assay [5].

As to GTACGTCA, the binding signal in [1] came out at 0.413 E-score; in assay [3], 0.363 E-score; in assay [11], 0.244 E-score; in [5], 0.163 E-score.

In the case of GTGACGTA, the binding signal in assay [10] is 0.452 E-score; in assay [4], -0.0309 E-score; in [5] it was 0.149 E-score; in [6], 0.0187 E-score.

GCGTATAA: the binding signal in assay [2] was 0.229 E-score; in [11], 0.285 E-score; in assay [5], 0.155 E-score; in [6] it was -0.105 E-score.

With GCGTGTAA, the binding signal is 0.222 E-score in [9]; 0.438 E-score in [10]; 0.025 E-score in assay [4]; 0.187 E-score in [5]; -0.0493 E-score in assay [6].

As for ACTAAGTA, the figures for the binding signal in [8], in assay [4] and in [5] were 0.429 E-score, 0.116 E-score and 0.0484 E-score, respectively.

For TGACGTAA, the binding signal in assay [7] was 0.449 E-score; in assay [8], 0.0202 E-score; in [1] it was 0.368 E-score; in assay [5], 0.134 E-score.

ACGTAAGC: the binding signal in [9] was 0.406 E-score; in assay [3], 0.428 E-score; in assay [4] it was 0.205 E-score; in [5] it was 0.0331 E-score; in assay [6] it was -0.0387 E-score.

For the sequence AAGTAAGT, the binding signal in assay [10] amounted to 0.259 E-score; in assay [3] it was 0.135 E-score; in assay [4], 0.267 E-score; in assay [5], 0.0851 E-score; in [6], 0.2 E-score.

For the sequence AAGTCTAC, the binding signal in assay [8] is 0.202 E-score; in [1], 0.0378 E-score; in [10] it was 0.024 E-score; in assay [3], 0.00158 E-score; in assay [4], 0.00999 E-score; in assay [5] it was -0.0462 E-score.

For the sequence GCGTGCAC, the binding signal in assay [7] was 0.372 E-score; in [8], -0.0254 E-score; in assay [1], 0.255 E-score; in assay [11] it was 0.169 E-score; in assay [4], -0.1 E-score; in assay [5], 0.0495 E-score.

On to ACACGTCT, for which the binding signal in assay [8] was -0.0468 E-score; in assay [1] it was 0.459 E-score; in [10] it was 0.425 E-score; in assay [3], 0.346 E-score; in assay [4] it was 0.00117 E-score; in [5], -0.0679 E-score.

With GTTTCGTA, the binding signal in assay [11] was 0.163 E-score; in assay [5], 0.0291 E-score; in assay [6] it was -0.138 E-score.

For the sequence ACACGACA, the binding signal was 0.339 E-score in assay [2], 0.36 E-score in assay [3], -0.0573 E-score in [5] and 0.0821 E-score in assay [6].

Take TCACGCAA: the binding signal in assay [7] stood at 0.488 E-score; in assay [1], 0.467 E-score; in assay [11], 0.396 E-score; in assay [5], 0.181 E-score.

Regarding ACAAGTCA, the binding signal in assay [8] is 0.0563 E-score; in assay [1], -0.124 E-score; in assay [9] it was 0.0275 E-score; in assay [2], -0.0196 E-score; in [3], 0.146 E-score; in assay [4] it was 0.0517 E-score. Further, the binding signal in assay [5] amounted to 0.00717 E-score.

As for AATGCGTG, the binding signal is 0.147 E-score in [8]; 0.324 E-score in [1]; 0.44 E-score in assay [10]; 0.243 E-score in assay [11]; -0.00978 E-score in assay [4]; 0.185 E-score in [5].

As to GATTGACC, the binding signal in assay [8] was 0.0275 E-score; in [1] it was -0.0933 E-score; in [9], 0.0576 E-score; in [2] it was -0.0274 E-score; in assay [3], -0.186 E-score; in assay [11] it was 0.0322 E-score. For the same sequence, the binding signal worked out at 0.017 E-score in [4] and 0.0949 E-score in [5].

In the case of GACTTTTA, the binding signal was 0.0487 E-score in assay [7]; -0.0791 E-score in assay [8]; 0.17 E-score in assay [2]; 0.141 E-score in assay [10]; 0.00584 E-score in assay [3]; 0.0285 E-score in assay [11]. The binding signal was -0.0694 E-score in [4] and 0.0331 E-score in assay [5].

GCACGTCA: the binding signal is -0.0423 E-score in assay [8]; 0.317 E-score in assay [2]; 0.341 E-score in [3]; -0.0746 E-score in assay [4]; -0.018 E-score in assay [5].

Consider GTCACGCA, for which the binding signal was 0.319 E-score in [7]; -0.0736 E-score in assay [8]; 0.307 E-score in [1]; 0.236 E-score in assay [9]; -0.171 E-score in assay [4]; 0.0997 E-score in assay [5].

On to GTACGCTA, for which the binding signal in assay [3] was 0.219 E-score; in assay [4], 0.129 E-score; in assay [5], 0.195 E-score; in [6], -0.0111 E-score.

In the case of CGTGCACG, the binding signal in assay [8] is 0.00273 E-score; in [3], 0.378 E-score; in assay [11], 0.221 E-score; in assay [4], 0.0868 E-score; in assay [5], -0.0907 E-score.
